# Reference: publication PMC4336329 (PLoS ONE, 2015)
# In all, about 310,000 compounds went through this assay and about 2,200 (0.71%) showed an effect of 50% or more. The effect is printed as a negative number. The list shows a part of the results.
# Biological target: human ether-à-go-go-related gene (hERG) potassium channel (human, UniProt Q12809)
# Assay: primary screen, population patch clamp on CHO cells stably expressing hERG
# human ether-à-go-go-related gene (hERG) potassium channel, sequence (Q12809 whole entry, looked up): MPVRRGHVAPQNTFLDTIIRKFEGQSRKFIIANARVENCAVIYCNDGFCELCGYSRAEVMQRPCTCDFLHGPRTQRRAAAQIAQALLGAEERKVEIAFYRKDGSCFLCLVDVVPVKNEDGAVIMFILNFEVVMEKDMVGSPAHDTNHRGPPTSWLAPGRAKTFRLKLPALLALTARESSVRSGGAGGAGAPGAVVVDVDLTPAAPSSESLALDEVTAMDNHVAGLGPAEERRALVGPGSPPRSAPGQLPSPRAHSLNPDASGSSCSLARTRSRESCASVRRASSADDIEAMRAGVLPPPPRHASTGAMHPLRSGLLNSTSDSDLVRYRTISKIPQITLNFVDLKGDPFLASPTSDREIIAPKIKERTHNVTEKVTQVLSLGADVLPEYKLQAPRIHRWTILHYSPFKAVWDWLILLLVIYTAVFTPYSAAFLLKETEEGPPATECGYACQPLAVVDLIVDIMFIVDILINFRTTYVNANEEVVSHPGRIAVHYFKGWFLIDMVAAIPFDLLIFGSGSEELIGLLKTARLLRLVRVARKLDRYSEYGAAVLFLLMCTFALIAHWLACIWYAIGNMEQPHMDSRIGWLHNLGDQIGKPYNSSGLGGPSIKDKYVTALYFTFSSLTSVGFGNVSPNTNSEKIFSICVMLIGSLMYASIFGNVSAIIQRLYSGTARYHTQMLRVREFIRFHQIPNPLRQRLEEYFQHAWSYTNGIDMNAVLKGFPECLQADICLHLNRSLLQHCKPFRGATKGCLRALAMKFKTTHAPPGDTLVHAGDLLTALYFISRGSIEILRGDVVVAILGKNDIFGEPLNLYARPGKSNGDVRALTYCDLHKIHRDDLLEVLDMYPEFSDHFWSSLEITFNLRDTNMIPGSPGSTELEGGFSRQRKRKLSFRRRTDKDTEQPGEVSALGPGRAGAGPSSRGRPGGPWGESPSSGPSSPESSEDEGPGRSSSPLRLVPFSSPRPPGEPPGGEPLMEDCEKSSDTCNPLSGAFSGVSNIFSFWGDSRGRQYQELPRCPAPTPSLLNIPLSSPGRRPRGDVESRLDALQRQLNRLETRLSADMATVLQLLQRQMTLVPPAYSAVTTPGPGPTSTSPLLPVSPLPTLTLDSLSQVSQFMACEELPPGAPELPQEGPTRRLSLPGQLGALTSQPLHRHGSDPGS
row,Compound,"hERG current change (%, negative = inhibition) at 1uM"
1,CCCCn1c(SCC(=O)c2ccc(OC)c(OC)c2)nc2cc(S(N)(=O)=O)ccc21,6.89%
2,C/C=C/CC#N,11.8%
3,CC(=O)c1cccc(NC(=O)/C(=C\c2cccnc2)NC(=O)c2ccccc2)c1,4.42%
4,CCOc1ccc(-c2ncncc2-c2ccccc2OC)c(O)c1,4.41%
5,CC(C)CN1CCN=C1Nc1ccccc1,9.9%
6,COc1ccc2[nH]cc(C(O)CN3CCN(c4ccccc4F)CC3)c2c1 (stereo not shown),8.35%
7,CCCCNc1cc(C)nc(N2CCOCC2)n1,-23.5%
8,Cn1nnnc1Sc1ncnc2scc(-c3cccc(F)c3)c12,16.9%
9,O=C(Nc1cccc(F)c1)Nc1ccccn1,16%
10,CCn1c(C)nc2cc(C(=O)NNC(=S)NC(=O)c3ccccc3)ccc21,15.4%
11,COc1cc(C2NC(=O)NC(C)=C2C(=O)OC2CCCCC2)cc(Br)c1O (stereo not shown),4.36%
12,Cc1ccc(/C=C/C(=O)NCCc2ccccc2)o1,19%
13,CC(=O)O[C@@H]1/C=C/[C@](C)(O)C[C@@H](C)C/C=C/[C@H]2[C@H](O)[C@@](C)(O)[C@@H](C)[C@H]3[C@H](Cc4ccccc4)NC(=O)[C@@]312,16.6%
14,CC(C)N1CC(O)=C(c2ccccc2)C1=N,10.4%
15,COc1ccc(C2/C(=C(/O)c3ccc(C)cc3)C(=O)C(=O)N2c2ccccn2)cc1OC (stereo not shown),14%
16,COc1ccc(-c2ocnc2C(=O)Nc2ccccc2N2CCCCC2)cc1,-8.65%
17,Cl.Fc1ccc(C2=CSC3=NCCN23)cc1,13.8%
18,CCN(CC(=O)Nc1cc(Cl)ccc1C)C(=O)c1nc2nc(C)cc(C)n2n1,6.93%
19,Cc1ccc2c(c1)C1(C(=O)N2C)N2CC3(C)CN1CC(C)(C2)C3=O (stereo not shown),15.9%
20,Cc1csc(SC(C)C(=O)NCC2CCCCC2)n1 (stereo not shown),17%
21,O=C1c2ccccc2C(=O)N1Cc1nc2ccccc2c(=O)n1CCCN1CCOCC1,4.94%
22,COc1ccc(C(=O)NCc2ccc(C)cc2)cc1S(=O)(=O)N1CCCC1,8.23%

row,Compound,"hERG current change (%, negative = inhibition) at 1uM"
1,CCCNS(=O)(=O)c1ccc(CCC(=O)Nc2ccc3c(c2)OCO3)cc1,9.2%
2,COc1cc2c(cc1OC)-c1cc(N3CCCc4ccccc43)nc(=O)n1CC2,8.81%
3,COC(=O)c1cc(COC(=O)c2nc3nccc(C)n3n2)oc1C,9.87%
4,Cn1c(=O)c2c(ncn2CC(=O)OCC(=O)Nc2ccc(F)cc2F)n(C)c1=O,-0.963%
5,O=c1c2ccccc2nc(COc2ccccc2)n1/N=C/c1cc([N+](=O)[O-])ccc1O,3.59%
6,c1ccc(Cn2nnc3c(N4CCOCC4)ncnc32)cc1,13.1%
7,Nc1nc(Nc2cccc(Cl)c2)nc(NCCO)c1[N+](=O)[O-],-8.78%
8,CCOC(=O)C1C(=O)C=C(c2ccc(NS(C)(=O)=O)cc2)CC1c1ccco1 (stereo not shown),-41.9%
9,O=S(=O)(Nc1cc(S(=O)(=O)N2CCOCC2)ccc1N1CCOCC1)c1ccc2c(c1)OCCO2,28.4%
10,Cc1ccc(-c2nnn(CC(=O)N3CCCCC3)n2)cc1,9.43%
11,O=C(Nc1ccccc1N1CCN(C(=O)c2ccccc2)CC1)c1ccccc1Cl,-29.8%
12,Cc1ccc([N+](=O)[O-])cc1-c1[nH]c(-c2ccc(O)c(O)c2)nc1-c1ccccc1,0.511%
13,Cc1cc(CSc2ccccc2)ccc1NC(=O)c1ccc(Br)cc1,7.18%
14,COc1ccccc1CNC(=O)C(=O)Nc1ccc(C(=O)N2CCC(C)CC2)cc1,12.4%
15,Cc1onc(-c2c(Cl)cccc2Cl)c1COC(=O)c1ccc([N+](=O)[O-])cc1,17.5%
16,COc1ccc(-c2nc(CS(=O)CC(=O)NCCc3ccc(C)cc3)c(C)o2)cc1OC (stereo not shown),10.7%
17,O=C(CCC(=O)N1CCOCC1)Nc1ccc(Cl)c(Cl)c1,6.92%
18,CCOc1ccc(NC(=S)N(CCCN2CCCC2)Cc2cccn2Cc2ccc(Cl)cc2)cc1,-2.47%
19,O=C(Nn1cnnc1)c1ccc([N+](=O)[O-])cc1,9.26%
20,CCOc1ccc(CN(C)C(=O)CNC(=O)C2CCCCC2)cc1,16.6%
21,CC(C)Oc1ccccc1C1Nc2ccccc2C(=O)N1c1ccc2c(c1)OCCO2 (stereo not shown),4.74%
